Test results reported in the supplement of paper PMC12217912.
This is one part of the list. Sequences were assembled here from the parent chain. Values near 0.05 are background.

B1: TEV protease; numbered along this chain (parent)
chain: MGESLFKGPRDYNPISSSICHLTNESDGHTTSLYGIGFGPFIITNKHLFRRNNGTLVVQSLHGVFKVKDTTTLQQHLVDGRDMIIIRMPKDFPPFPQKLKFREPQREERICLVTTNFQTKSMSSMVSDTSCTFPSGDGIFWKHWIQTKDGQCGSPLVSTRDGFIVGIHSASNFTNTNNYFTSVPKNFMELLTNQEAQQWVSGWRLNADSVLWGGHKVFMVKPEEPFQPVKEATQL

Variants of: B1
Assay: raw area under fraction-flipped curve 0-4 h after induction (AUC4h, not background-subtracted), DNA-recorder readout of cleavage of the substrate (dimensionless); higher = more cleavage of the substrate by the protease variant
Settings: temperature: 34 °C; time window: 0-4 h after rhamnose induction
Procedure: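 In vivo DNA recorder in E. coli TOP10(DE3) ΔrhaA at 34 °C. Each TEVp single-site mutant (parent TEVp 0) is paired with a single-site variant of the 7-mer TEVs (canonical ENLYFQ|S). The substrate sits between flexible linkers in a Bxb1-sfGFP-TEVs-SsrA fusion, so cleavage stabilises Bxb1 and speeds flipping of a recombination array, read by NGS. The value is the raw area under the fraction-flipped curve over 0-4 h after rhamnose induction (AUC4h), with ≥20 reads per time point. It is not background-subtracted; inactive controls average about 0.047.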
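Further: Bxb1 expression induced with 0.2% (w/v) L-rhamnose at OD600 near 0.5, cultures sampled hourly, flipped fraction per protease–substrate barcode pair counted by paired-end Illumina sequencing.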

Variant | area with substrate EALYFQS | area with substrate ECLYFQS | area with substrate EDLYFQS | area with substrate EILYFQS | area with substrate EKLYFQS | area with substrate ELLYFQS | area with substrate EMLYFQS | area with substrate EPLYFQS | area with substrate EQLYFQS | area with substrate ESLYFQS | area with substrate EVLYFQS | area with substrate EWLYFQS | area with substrate EELYFQS | area with substrate EHLYFQS | area with substrate ERLYFQS | area with substrate EYLYFQS | area with substrate EFLYFQS | area with substrate ETLYFQS | area with substrate EGLYFQS
A232R | 0.117 | 0.121 | 0.121 | 0.0815 | 0.112 | 0.0952 | 0.118 | 0.117 | 0.102 | 0.107 | 0.111 | 0.0849 |  |  |  |  |  |  | 
A232L | 0.101 | 0.0924 | 0.0777 | 0.0812 | 0.0787 |  | 0.11 |  |  | 0.0979 |  |  | 0.119 | 0.0739 | 0.084 | 0.114 |  |  | 
A232Q | 0.234 | 0.119 | 0.125 | 0.133 | 0.123 | 0.0892 | 0.136 | 0.0959 | 0.117 | 0.11 | 0.112 | 0.0989 | 0.118 | 0.133 | 0.0991 | 0.106 |  |  | 
A232E | 0.12 | 0.123 |  | 0.0815 |  |  | 0.0945 | 0.108 |  | 0.104 | 0.122 | 0.0837 |  | 0.0915 |  |  | 0.0867 | 0.135 | 
S32C |  | 0.106 | 0.148 | 0.114 | 0.118 | 0.0843 | 0.0744 |  | 0.164 | 0.102 | 0.0889 | 0.0666 | 0.15 | 0.104 | 0.115 | 0.106 | 0.0639 |  | 0.092
P222W | 0.0994 | 0.0929 | 0.152 | 0.0817 | 0.0857 | 0.0807 | 0.0984 | 0.127 | 0.0995 | 0.0808 | 0.101 | 0.0768 | 0.0904 |  | 0.0761 |  |  | 0.109 | 0.0763
F226D | 0.104 | 0.102 | 0.114 | 0.0898 | 0.124 |  | 0.108 |  | 0.106 |  |  |  |  | 0.137 |  |  | 0.132 | 0.123 | 
E3N |  | 0.125 |  |  |  |  |  | 0.16 |  |  |  |  |  |  | 0.134 |  |  |  | 
Y12A |  | 0.113 | 0.144 | 0.0857 |  | 0.111 |  |  | 0.103 | 0.0981 | 0.116 | 0.0831 | 0.0992 | 0.0708 | 0.0962 |  | 0.134 |  | 
E231W | 0.122 | 0.0806 | 0.134 | 0.0812 | 0.0879 |  | 0.0704 | 0.106 | 0.091 | 0.0994 | 0.0804 |  |  |  | 0.091 |  |  | 0.0854 | 0.0994
L22G |  | 0.0391 |  |  | 0.0576 |  |  |  | 0.0452 | 0.0653 |  |  |  |  | 0.0238 |  |  |  | 
Q198F | 0.0996 | 0.0895 | 0.097 | 0.0839 | 0.0931 | 0.0777 | 0.121 | 0.184 | 0.105 | 0.0836 | 0.0802 | 0.085 | 0.0764 | 0.102 | 0.0913 | 0.0965 | 0.0836 | 0.0914 | 0.0798
G202F | 0.0527 |  |  | 0.06 |  | 0.0688 | 0.0548 | 0.0638 |  | 0.0555 | 0.0462 | 0.0942 |  |  | 0.0536 |  |  | 0.075 | 0.057
G202C | 0.0579 |  | 0.0848 |  |  |  |  |  | 0.0765 | 0.0716 |  |  |  |  | 0.0545 |  |  |  | 
T192S | 0.0848 | 0.118 | 0.0882 | 0.0948 |  | 0.0999 | 0.088 | 0.13 |  | 0.086 | 0.0925 |  | 0.102 |  | 0.138 |  |  | 0.0938 | 
T192N | 0.107 | 0.149 | 0.109 | 0.101 |  | 0.083 |  | 0.152 | 0.118 | 0.106 | 0.0774 | 0.108 | 0.106 | 0.126 | 0.0611 | 0.124 |  |  | 0.112
T192L | 0.119 | 0.103 |  | 0.11 |  |  |  | 0.118 | 0.111 | 0.107 | 0.0967 | 0.0854 |  | 0.0954 |  |  |  |  | 0.0788
K216T | 0.116 |  |  | 0.0691 | 0.109 |  |  | 0.117 | 0.105 | 0.0846 | 0.0992 |  | 0.0907 |  | 0.0955 | 0.0944 | 0.097 | 0.107 | 0.0805
K216V | 0.134 | 0.11 | 0.114 |  | 0.109 | 0.0951 |  |  | 0.143 | 0.0904 | 0.093 |  | 0.112 |  | 0.115 | 0.153 |  | 0.0966 | 
H215Q | 0.0761 | 0.0829 | 0.0838 | 0.0681 | 0.0626 | 0.0894 |  |  | 0.0717 | 0.0659 |  |  | 0.0744 | 0.0586 | 0.065 | 0.0531 | 0.0709 |  | 0.0576
Q197Y | 0.101 |  | 0.0972 | 0.0804 |  |  |  |  |  | 0.0748 |  | 0.0886 |  |  |  |  |  |  | 
Q194G | 0.118 | 0.123 | 0.145 | 0.114 | 0.116 | 0.0943 | 0.134 | 0.113 |  | 0.106 | 0.108 | 0.0941 | 0.0894 | 0.121 | 0.107 | 0.107 | 0.121 | 0.0933 | 0.12
G214S | 0.13 |  | 0.11 | 0.0681 |  |  |  |  | 0.16 | 0.0967 | 0.0885 |  | 0.104 |  |  |  |  |  | 
V220Q | 0.128 | 0.118 | 0.104 | 0.1 | 0.123 | 0.0916 | 0.0996 | 0.133 | 0.127 | 0.0953 | 0.129 | 0.134 | 0.0893 | 0.113 | 0.129 | 0.0984 | 0.116 | 0.117 | 0.108
D208C | 0.0593 | 0.0798 | 0.0774 | 0.0709 | 0.084 |  | 0.0461 | 0.0541 | 0.1 | 0.079 | 0.066 | 0.0733 | 0.0961 | 0.0697 | 0.0917 |  |  | 0.0696 | 
D208Y | 0.0848 | 0.0686 | 0.0809 | 0.0595 | 0.0797 | 0.062 | 0.0811 | 0.0323 | 0.0855 |  | 0.0517 | 0.0607 | 0.0504 | 0.0568 | 0.0659 | 0.0895 |  | 0.065 | 0.0483
D208T | 0.0539 |  | 0.103 | 0.0987 |  |  | 0.0861 | 0.0883 | 0.0801 |  | 0.0728 |  | 0.0721 | 0.0695 | 0.0773 |  |  | 0.106 | 
D208M | 0.0614 |  |  | 0.0721 | 0.0663 | 0.0903 | 0.0869 |  | 0.104 | 0.0777 | 0.0683 |  | 0.0844 | 0.108 |  |  | 0.0566 | 0.0959 | 0.0826
